Results published in patent publication US20190169308A1 (ALLIGATOR BIOSCIENCE, published 2019).
Positions count from the first letter of the chain named.

Target: T1, 5T4-Fc (human, UniProt Q13641 32-355, limits assumed)
T1 construct: obtained from Peter L. Stern, University of Manchester; also called h5T4-Fc; recombinant 5T4
T1 sequence (looked up): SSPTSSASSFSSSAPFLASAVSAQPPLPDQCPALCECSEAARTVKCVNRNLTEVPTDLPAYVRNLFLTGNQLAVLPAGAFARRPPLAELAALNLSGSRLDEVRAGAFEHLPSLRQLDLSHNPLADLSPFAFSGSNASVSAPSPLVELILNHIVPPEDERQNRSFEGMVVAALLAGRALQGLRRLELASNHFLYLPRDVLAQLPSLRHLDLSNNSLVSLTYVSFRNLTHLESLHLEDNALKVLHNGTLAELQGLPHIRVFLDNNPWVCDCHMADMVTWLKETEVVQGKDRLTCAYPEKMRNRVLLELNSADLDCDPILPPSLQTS
Experiment: dual ELISA: coated 5T4-Fc, detection with CD137-bio

B1: 1204-1210 (bispecific antibody)
heavy: EVQLLESGGGLVQPGGSLRLSCAASGFTFSSYYMGWVRQAPGKGLEWVSGIGSYYGYTGYADSVKGRFTISRDNSKNTLYLQMNSLRAEDTAVYYCARAYYDYNYYYAYFDYWGQGTLVTVSS[no letters for human IgG1 constant region]GGGGSGGGGS[no letters for about 100 residues]YYGGYYSAWMDYWGQGTLVTVSSGGGGSGGGGSGGGGSDIQMTQSPSSLSASVGDRVTITCRASQSISSYLNWYQQKPGKAPKLLIYAASSLQSGVPSRFSGSGSGTDFTLTISSLQPEDFATYYCQQTYGYLHTFGQGTKLEIK
light: DIQMTQSPSSLSASVGDRVTITCRASQSISSYLNWYQQKPGKAPKLLIYAASSLQSGVPSRFSGSGSGTDFTLTISSLQPEDFATYYCQQSVPHYPFTFGQGTKLEIKRTVAAPSVFIFPPSDEQLKSGTASVVCLLNNFYPREAKVQWKVDNALQSGNSQESVTEQDSKDSTYSLSSTLTLSKADYEKHKVYACEVTHQGLSSPVTKSFNRGEC
notes: Morrison format IgG-scFv
EC50: 0.73 nM

B2: 1620-1210 (bispecific antibody)
heavy: EVQLLESGGGLVQPGGSLRLSCAASGFTFSGYYMYWVRQAPGKGLEWVSGISSSGSYTYYADSVKGRFTISRDNSKNTLYLQMNSLRAEDTAVYYCARSVGPYFDYWGQGTLVTVSS[no letters for human IgG1 constant region]GGGGSGGGGS[no letters for about 100 residues]YYGGYYSAWMDYWGQGTLVTVSSGGGGSGGGGSGGGGSDIQMTQSPSSLSASVGDRVTITCRASQSISSYLNWYQQKPGKAPKLLIYAASSLQSGVPSRFSGSGSGTDFTLTISSLQPEDFATYYCQQTYGYLHTFGQGTKLEIK
light: DIQMTQSPSSLSASVGDRVTITCRASQSISSYLNWYQQKPGKAPKLLIYAASSLQSGVPSRFSGSGSGTDFTLTISSLQPEDFATYYCQQGVGPYTFGQGTKLEIKRTVAAPSVFIFPPSDEQLKSGTASVVCLLNNFYPREAKVQWKVDNALQSGNSQESVTEQDSKDSTYSLSSTLTLSKADYEKHKVYACEVTHQGLSSPVTKSFNRGEC
notes: Morrison format IgG-scFv
EC50: 1.74 nM

B3: 1210-1202 (bispecific antibody)
heavy: [no letters for about 100 residues]YYGGYYSAWMDYWGQGTLVTVSS[no letters for human IgG1 constant region]GGGGSGGGGSEVQLLESGGGLVQPGGSLRLSCAASGFTFYGSSMSWVRQAPGKGLEWVSSIYYGSSGTYYADSVKGRFTISRDNSKNTLYLQMNSLRAEDTAVYYCARSYYGYFDYWGQGTLVTVSSGGGGSGGGGSGGGGSDIQMTQSPSSLSASVGDRVTITCRASQSISSYLNWYQQKPGKAPKLLIYAASSLQSGVPSRFSGSGSGTDFTLTISSLQPEDFATYYCQQYYTVVPFTFGQGTKLEIK
light: DIQMTQSPSSLSASVGDRVTITCRASQSISSYLNWYQQKPGKAPKLLIYAASSLQSGVPSRFSGSGSGTDFTLTISSLQPEDFATYYCQQTYGYLHTFGQGTKLEIKRTVAAPSVFIFPPSDEQLKSGTASVVCLLNNFYPREAKVQWKVDNALQSGNSQESVTEQDSKDSTYSLSSTLTLSKADYEKHKVYACEVTHQGLSSPVTKSFNRGEC
notes: Morrison format IgG-scFv
EC50: 0.28 nM

B4: 1210-1204 (bispecific antibody)
heavy: [no letters for about 100 residues]YYGGYYSAWMDYWGQGTLVTVSS[no letters for human IgG1 constant region]GGGGSGGGGSEVQLLESGGGLVQPGGSLRLSCAASGFTFSSYYMGWVRQAPGKGLEWVSGIGSYYGYTGYADSVKGRFTISRDNSKNTLYLQMNSLRAEDTAVYYCARAYYDYNYYYAYFDYWGQGTLVTVSSGGGGSGGGGSGGGGSDIQMTQSPSSLSASVGDRVTITCRASQSISSYLNWYQQKPGKAPKLLIYAASSLQSGVPSRFSGSGSGTDFTLTISSLQPEDFATYYCQQSVPHYPFTFGQGTKLEIK
light: B3 light
notes: Morrison format IgG-scFv
EC50: 0.28 nM

B5: 1200-1212 (bispecific antibody)
heavy: EVQLLESGGGLVQPGGSLRLSCAASGFTFSSYAMSWVRQAPGKGLEWVSGISGGGGGTYYADSVKGRFTISRDNSKNTLYLQMNSLRAEDTAVYYCARDVAYFDYWGQGTLVTVSS[no letters for human IgG1 constant region]GGGGSGGGGSEVQLLESGGGLVQPGGSLRLSCAASGFTFSSYAMSWVRQAPGKGLEWVSYISSYGGYTSYADSVKGRFTISRDNSKNTLYLQMNSLRAEDTAVYYCARYHSGVLDYWGQGTLVTVSSGGGGSGGGGSGGGGSDIQMTQSPSSLSASVGDRVTITCRASQSISSYLNWYQQKPGKAPKLLIYAASSLQSGVPSRFSGSGSGTDFTLTISSLQPEDFATYYCQQYYYHYLLTFGQGTKLEIK
light: B2 light with G91Y, V92Y, G93I, Y95H
notes: Morrison format IgG-scFv
EC50: 1.55 nM

B6: 1202-1212 (bispecific antibody)
chain 1: EVQLLESGGGLVQPGGSLRLSCAASGFTFYGSSMSWVRQAPGKGLEWVSSIYYGSSGTYYADSVKGRFTISRDNSKNTLYLQMNSLRAEDTAVYYCARSYYGYFDYWGQGTLVTVSS[no letters for human IgG1 constant region]GGGGSGGGGSEVQLLESGGGLVQPGGSLRLSCAASGFTFSSYAMSWVRQAPGKGLEWVSYISSYGGYTSYADSVKGRFTISRDNSKNTLYLQMNSLRAEDTAVYYCARYHSGVLDYWGQGTLVTVSSGGGGSGGGGSGGGGSDIQMTQSPSSLSASVGDRVTITCRASQSISSYLNWYQQKPGKAPKLLIYAASSLQSGVPSRFSGSGSGTDFTLTISSLQPEDFATYYCQQYYYHYLLTFGQGTKLEIK
chain 2: B1 light with S91Y, V92Y, P93T, H94V, Y95V
EC50: 1.67 nM

B7: 1204-1212 (bispecific antibody)
chain 1: EVQLLESGGGLVQPGGSLRLSCAASGFTFSSYYMGWVRQAPGKGLEWVSGIGSYYGYTGYADSVKGRFTISRDNSKNTLYLQMNSLRAEDTAVYYCARAYYDYNYYYAYFDYWGQGTLVTVSS[no letters for human IgG1 constant region]GGGGSGGGGSEVQLLESGGGLVQPGGSLRLSCAASGFTFSSYAMSWVRQAPGKGLEWVSYISSYGGYTSYADSVKGRFTISRDNSKNTLYLQMNSLRAEDTAVYYCARYHSGVLDYWGQGTLVTVSSGGGGSGGGGSGGGGSDIQMTQSPSSLSASVGDRVTITCRASQSISSYLNWYQQKPGKAPKLLIYAASSLQSGVPSRFSGSGSGTDFTLTISSLQPEDFATYYCQQYYYHYLLTFGQGTKLEIK
chain 2: B1 light
EC50: 1.01 nM

B8: 1212-1202 (bispecific antibody)
chain 1: EVQLLESGGGLVQPGGSLRLSCAASGFTFSSYAMSWVRQAPGKGLEWVSYISSYGGYTSYADSVKGRFTISRDNSKNTLYLQMNSLRAEDTAVYYCARYHSGVLDYWGQGTLVTVSS[no letters for human IgG1 constant region]GGGGSGGGGSEVQLLESGGGLVQPGGSLRLSCAASGFTFYGSSMSWVRQAPGKGLEWVSSIYYGSSGTYYADSVKGRFTISRDNSKNTLYLQMNSLRAEDTAVYYCARSYYGYFDYWGQGTLVTVSSGGGGSGGGGSGGGGSDIQMTQSPSSLSASVGDRVTITCRASQSISSYLNWYQQKPGKAPKLLIYAASSLQSGVPSRFSGSGSGTDFTLTISSLQPEDFATYYCQQYYTVVPFTFGQGTKLEIK
chain 2: B1 light with S91Y, V92Y, P93Y, P96L, F97L
EC50: 0.57 nM

B9: 1212-1204 (bispecific antibody)
chain 1: EVQLLESGGGLVQPGGSLRLSCAASGFTFSSYAMSWVRQAPGKGLEWVSYISSYGGYTSYADSVKGRFTISRDNSKNTLYLQMNSLRAEDTAVYYCARYHSGVLDYWGQGTLVTVSS[no letters for human IgG1 constant region]GGGGSGGGGSEVQLLESGGGLVQPGGSLRLSCAASGFTFSSYYMGWVRQAPGKGLEWVSGIGSYYGYTGYADSVKGRFTISRDNSKNTLYLQMNSLRAEDTAVYYCARAYYDYNYYYAYFDYWGQGTLVTVSSGGGGSGGGGSGGGGSDIQMTQSPSSLSASVGDRVTITCRASQSISSYLNWYQQKPGKAPKLLIYAASSLQSGVPSRFSGSGSGTDFTLTISSLQPEDFATYYCQQSVPHYPFTFGQGTKLEIK
chain 2: B1 light with S91Y, V92Y, P93Y, P96L, F97L
EC50: 0.27 nM

B10: 1212-1214 (bispecific antibody)
chain 1: EVQLLESGGGLVQPGGSLRLSCAASGFTFSSYAMSWVRQAPGKGLEWVSYISSYGGYTSYADSVKGRFTISRDNSKNTLYLQMNSLRAEDTAVYYCARYHSGVLDYWGQGTLVTVSS[no letters for human IgG1 constant region]GGGGSGGGGSEVQLLESGGGLVQPGGSLRLSCAASGFTFSSYAMSWVRQAPGKGLEWVSSIGSGGGYTGYADSVKGRFTISRDNSKNTLYLQMNSLRAEDTAVYYCARVGHPFDYWGQGTLVTVSSGGGGSGGGGSGGGGSDIQMTQSPSSLSASVGDRVTITCRASQSISSYLNWYQQKPGKAPKLLIYAASSLQSGVPSRFSGSGSGTDFTLTISSLQPEDFATYYCQQDAYPHTFGQGTKLEIK
chain 2: B1 light with S91Y, V92Y, P93Y, P96L, F97L
EC50: 0.79 nM
